The values that follow come from the supplement of paper PMC4604168 (melanoma cell lines).

SMILES strings stand for the structures. This is one part of the list. Single values are uncertain, as repeats are few or missing.
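Also: cells treated in 1,536-well plates, then fixed and DAPI-stained, with nuclei counted from automated high-throughput microscope images.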

In this assay the test system is MEL-HO. In words: cell count relative to DMSO control; melanoma cells; higher = more viable cells. Particulars: library dose: standard library concentration; 72 h.
Turning to `CO[C@H]1C[C@@H]2CC[C@@H](C)[C@@](O)(O2)C(=O)C(=O)N2CCCC[C@H]2C(=O)O[C@H]([C@H](C)C[C@@H]2CC[C@@H](OCCO)[C@H](OC)C2)CC(=O)[C@H](C)/C=C(\C)[C@@H](O)[C@@H](OC)C(=O)[C@H](C)C[C@H](C)/C=C/C=C/C=C/1C` [everolimus] + COc1cc2ncnc(Nc3ccc(Oc4ccccc4)cc3)c2cc1OC [SrcI1] (first compound 0.1 µM, partner dose 10 µM), the cell count came to 64.2%.
As for `CO[C@H]1C[C@@H]2CC[C@@H](C)[C@@](O)(O2)C(=O)C(=O)N2CCCC[C@H]2C(=O)O[C@H]([C@H](C)C[C@@H]2CC[C@@H](OCCO)[C@H](OC)C2)CC(=O)[C@H](C)/C=C(\C)[C@@H](O)[C@@H](OC)C(=O)[C@H](C)C[C@H](C)/C=C/C=C/C=C/1C` [everolimus] + COc1ccc(-c2ccc3c(N4CCOCC4)nc(N4C[C@@H](C)O[C@@H](C)C4)nc3n2)cc1CO [KU0063794] (first compound 0.1 µM, partner dose 0.1 µM), the figure is 52.1%.
Consider `CC(=O)c1c(C)c2cnc(Nc3ccc(N4CCNCC4)cn3)nc2n(C2CCCC2)c1=O` [palbociclib] + COc1ccc(Cl)c(Nc2nc3ccccc3nc2NS(=O)(=O)c2cccc(NC(=O)C(C)(C)N)c2)c1 [XL147] (first compound 0.2 µM, partner dose 4 µM), for which the cell count worked out at 69.7%.
With `CC(=O)c1c(C)c2cnc(Nc3ccc(N4CCNCC4)cn3)nc2n(C2CCCC2)c1=O` [palbociclib] + COc1ccc2c(c1)CCC1C2CCC2(C)C(NCCCCCCN3C(=O)C=CC3=O)CCC12 [U73122] (first compound 0.2 µM, partner dose 2 µM), the cell count came to 91.4%.
As to `Nc1ccn([C@@H]2O[C@H](CO)[C@@H](O)C2(F)F)c(=O)n1` [gemcitabine] + CO[C@@H]1[C@H](N(C)C(=O)c2ccccc2)C[C@H]2O[C@]1(C)n1c3ccccc3c3c4c(c5c6ccccc6n2c5c31)C(=O)NC4 [Midostaurin] (first compound 0.002 µM, partner dose 0.4 µM), the cell count turned out to be 58.8%.
For `Nc1ccn([C@@H]2O[C@H](CO)[C@@H](O)C2(F)F)c(=O)n1` [gemcitabine] + Cc1nc(Nc2ncc(C(=O)Nc3c(C)cccc3Cl)s2)cc(N2CCN(CCO)CC2)n1 [dasatanib] (first compound 0.002 µM, partner dose 0.02 µM), the cell count was determined as 49.5%.
For the molecule `CC(=O)O[C@@]12CO[C@@H]1C[C@H](O)[C@@]1(C)C(=O)[C@H](O)C3=C(C)[C@@H](OC(=O)[C@H](O)[C@@H](NC(=O)OC(C)(C)C)c4ccccc4)C[C@@](O)([C@@H](OC(=O)c4ccccc4)[C@H]21)C3(C)C` [Docetaxel] + Cc1cc(Nc2cc(N3CCN(C)CC3)nc(/C=C/c3ccccc3)n2)n[nH]1 [ENMD2076] (first compound 0.0005 µM, partner dose 0.2 µM), the cell count came to 46.4%.
As for `CO[C@H]1C[C@@H]2CC[C@@H](C)[C@@](O)(O2)C(=O)C(=O)N2CCCC[C@H]2C(=O)O[C@H]([C@H](C)C[C@@H]2CC[C@@H](OCCO)[C@H](OC)C2)CC(=O)[C@H](C)/C=C(\C)[C@@H](O)[C@@H](OC)C(=O)[C@H](C)C[C@H](C)/C=C/C=C/C=C/1C` [everolimus] + NCC(=O)Nc1ccc(-n2nc(C(F)(F)F)cc2-c2ccc3c(ccc4ccccc43)c2)cc1 [OSU03012] (first compound 0.1 µM, partner dose 5 µM), the figure is 83.8%; as for `CC(=O)c1c(C)c2cnc(Nc3ccc(N4CCNCC4)cn3)nc2n(C2CCCC2)c1=O` [palbociclib] + Oc1cc(-c2nc(-c3ccccc3)[nH]c2-c2ccncc2)ccc1Cl [L779450] (first compound 0.2 µM, partner dose 1 µM), 72.4%.
The molecule `Nc1ccn([C@@H]2O[C@H](CO)[C@@H](O)C2(F)F)c(=O)n1` [gemcitabine] + CC1(C)NC(=O)N(c2ccc([N+](=O)[O-])c(C(F)(F)F)c2)C1=O [nilutamide] (first compound 0.002 µM, partner dose 5 µM) had a cell count of 58.4%.
As for `CO[C@H]1C[C@@H]2CC[C@@H](C)[C@@](O)(O2)C(=O)C(=O)N2CCCC[C@H]2C(=O)O[C@H]([C@H](C)C[C@@H]2CC[C@@H](OCCO)[C@H](OC)C2)CC(=O)[C@H](C)/C=C(\C)[C@@H](O)[C@@H](OC)C(=O)[C@H](C)C[C@H](C)/C=C/C=C/C=C/1C` [everolimus] + C=CCNC1=C2C[C@@H](C)C[C@H](OC)[C@H](O)[C@@H](C)/C=C(\C)[C@H](OC(N)=O)[C@@H](OC)/C=C\C=C(/C)C(=O)NC(=CC1=O)C2=O [Tanespimycin] (first compound 0.1 µM, partner dose 0.01 µM), the figure is 65.4%.
As for `CC(=O)O[C@@]12CO[C@@H]1C[C@H](O)[C@@]1(C)C(=O)[C@H](O)C3=C(C)[C@@H](OC(=O)[C@H](O)[C@@H](NC(=O)OC(C)(C)C)c4ccccc4)C[C@@](O)([C@@H](OC(=O)c4ccccc4)[C@H]21)C3(C)C` [Docetaxel] + CC1(C)NC(=O)N(c2ccc([N+](=O)[O-])c(C(F)(F)F)c2)C1=O [nilutamide] (first compound 0.0005 µM, partner dose 5 µM), the figure is 41.3%; as for `CC(=O)c1c(C)c2cnc(Nc3ccc(N4CCNCC4)cn3)nc2n(C2CCCC2)c1=O` [palbociclib] + NCC(=O)Nc1ccc(-n2nc(C(F)(F)F)cc2-c2ccc3c(ccc4ccccc43)c2)cc1 [OSU03012] (first compound 0.2 µM, partner dose 5 µM), 74.2%; as for `Nc1nc(F)nc2c1ncn2[C@@H]1O[C@H](CO)[C@@H](O)[C@@H]1O` [fludarabine] + Nc1cccc2c1CN(C1CCC(=O)NC1=O)C2=O [lenalidomide] (first compound 1 µM, partner dose 5 µM), 83.4%.
The molecule `CC(=O)O[C@@]12CO[C@@H]1C[C@H](O)[C@@]1(C)C(=O)[C@H](O)C3=C(C)[C@@H](OC(=O)[C@H](O)[C@@H](NC(=O)OC(C)(C)C)c4ccccc4)C[C@@](O)([C@@H](OC(=O)c4ccccc4)[C@H]21)C3(C)C` [Docetaxel] + Oc1cc(-c2nc(-c3ccccc3)[nH]c2-c2ccncc2)ccc1Cl [L779450] (first compound 0.0005 µM, partner dose 1 µM) registered a cell count of 38.6%.
As for `Nc1ncn([C@H]2C[C@H](O)[C@@H](CO)O2)c(=O)n1` [decitabine] + CC1(C)NC(=O)N(c2ccc([N+](=O)[O-])c(C(F)(F)F)c2)C1=O [nilutamide] (first compound 0.5 µM, partner dose 5 µM), the figure is 87%; as for `CC(=O)O[C@@]12CO[C@@H]1C[C@H](O)[C@@]1(C)C(=O)[C@H](O)C3=C(C)[C@@H](OC(=O)[C@H](O)[C@@H](NC(=O)OC(C)(C)C)c4ccccc4)C[C@@](O)([C@@H](OC(=O)c4ccccc4)[C@H]21)C3(C)C` [Docetaxel] + CN(NC(=O)CC(=O)NN(C)C(=S)c1ccccc1)C(=S)c1ccccc1 [STA4783] (first compound 0.0005 µM, partner dose 0.03 µM), 41.2%; as for `CC(=O)O[C@@]12CO[C@@H]1C[C@H](O)[C@@]1(C)C(=O)[C@H](O)C3=C(C)[C@@H](OC(=O)[C@H](O)[C@@H](NC(=O)OC(C)(C)C)c4ccccc4)C[C@@](O)([C@@H](OC(=O)c4ccccc4)[C@H]21)C3(C)C` [Docetaxel] + O=C(O)[C@@H]1[O][Sb](=[O])([O][Sb]2(=[O])[O][C@H]([C@H](O)CO)[C@H](O)[C@H](C(=O)O)[O]2)[O][C@H]([C@H](O)CO)[C@@H]1O [stibogluconate] (first compound 0.0005 µM, partner dose 10 µM), 32.6%.
In turn, `Nc1ccn([C@@H]2O[C@H](CO)[C@@H](O)C2(F)F)c(=O)n1` [gemcitabine] + O=C(O)C(=O)Nc1sc2c(c1C(=O)O)CCNC2 [TCS401] (first compound 0.002 µM, partner dose 8.33333 µM) came in with a cell count of 59.2%.
For `CC(=O)O[C@@]12CO[C@@H]1C[C@H](O)[C@@]1(C)C(=O)[C@H](O)C3=C(C)[C@@H](OC(=O)[C@H](O)[C@@H](NC(=O)OC(C)(C)C)c4ccccc4)C[C@@](O)([C@@H](OC(=O)c4ccccc4)[C@H]21)C3(C)C` [Docetaxel] + C[C@]1(c2nc3c(C(N)=O)cccc3[nH]2)CCCN1 [Veliparib] (first compound 0.0005 µM, partner dose 7 µM), the cell count turned out to be 34.5%.
`CC(=O)c1c(C)c2cnc(Nc3ccc(N4CCNCC4)cn3)nc2n(C2CCCC2)c1=O` [palbociclib] + N#Cc1c(O)c2c(-c3ccc(-c4ccccc4O)cc3)csc2[nH]c1=O [A769662] (first compound 0.2 µM, partner dose 10 µM) had a cell count of 69%.
Next, `Nc1ccn([C@@H]2O[C@H](CO)[C@@H](O)C2(F)F)c(=O)n1` [gemcitabine] + C=CCNC1=C2C[C@@H](C)C[C@H](OC)[C@H](O)[C@@H](C)/C=C(\C)[C@H](OC(N)=O)[C@@H](OC)/C=C\C=C(/C)C(=O)NC(=CC1=O)C2=O [Tanespimycin] (first compound 0.002 µM, partner dose 0.01 µM): 48%.
Molecule `CC(=O)c1c(C)c2cnc(Nc3ccc(N4CCNCC4)cn3)nc2n(C2CCCC2)c1=O` [palbociclib] + O=C(Nc1cccc(Cl)c1)Nc1ncc(CCNc2ncnc3ccsc23)s1 [SNS314] (first compound 0.2 µM, partner dose 0.004 µM) had a cell count of 63%.
